Reference: the supplement of paper PMC7726561
Whole data set: some 1,400 sequences, median “thermal melting temperature (Tm) of peptide-HLA complex” near 60, cut for the lowest 2% near 45. The list shows a part of the results.

B1: unnamed (peptide)
chain: MPRHFATKL
B2: unnamed (peptide)
chain: RPYPSPGAVL
B3: unnamed (peptide)
chain: QPHVNGRLAM
B4: unnamed (peptide)
chain: VPRLPGETL
B5: unnamed (peptide)
chain: SPMADRSMM
B6: unnamed (peptide)
chain: IPAKLHNSL
B7: unnamed (peptide)
chain: VPRLNSSPLAL
B8: unnamed (peptide)
chain: FPSSVRIHLL
B9: unnamed (peptide)
chain: RPIYPVEEL
B10: unnamed (peptide)
chain: RPVLPLML
B11: unnamed (peptide)
chain: SPYQGGVFF
B12: unnamed (peptide)
chain: RPAVSLTL
B13: unnamed (peptide)
chain: SPYQNIKIL
B14: unnamed (peptide)
chain: VPQVKASAL
B15: unnamed (peptide)
chain: APYAASRLL
B16: unnamed (peptide)
chain: NVRPVPLEL
B17: unnamed (peptide)
chain: MPYDSNRVVL
B18: unnamed (peptide)
chain: KPRSLQTGF
B19: unnamed (peptide)
chain: IPQGGRGAIQF
B20: unnamed (peptide)
chain: FPHPLPSL
B21: unnamed (peptide)
chain: KPYIRTSL
B22: unnamed (peptide)
chain: SINAQRNAL
B23: unnamed (peptide)
chain: SPLTKSISL
B24: unnamed (peptide)
chain: APSRNGMVL
B25: unnamed (peptide)
chain: RPFPGLVI
B26: unnamed (peptide)
chain: SPFGSSFRTF
B27: unnamed (peptide)
chain: LPADFGRLV
B28: unnamed (peptide)
chain: LPQLPLAAL
B29: unnamed (peptide)
chain: RPLTSPESL
B30: unnamed (peptide)
chain: HPRIASGLGL
B31: unnamed (peptide)
chain: LPRPPMLLA
B32: unnamed (peptide)
chain: APAPTVRLGL
B33: unnamed (peptide)
chain: TPRVPDNSL
B34: unnamed (peptide)
chain: YPLLKNISM
B35: unnamed (peptide)
chain: FPRHIEPEL
B36: unnamed (peptide)
chain: GPTQPPLSL
B37: unnamed (peptide)
chain: APGIRSWSL
B38: unnamed (peptide)
chain: LPRSEVTFL
B39: unnamed (peptide)
chain: LPRSIGNLTQL
B40: unnamed (peptide)
chain: YPKGAGEML
B41: unnamed (peptide)
chain: RPSSHPLIF
B42: unnamed (peptide)
chain: APFEPLASGIL
B43: unnamed (peptide)
chain: RPKPIITSV
B44: unnamed (peptide)
chain: IPRTPLSPSPM
B45: unnamed (peptide)
chain: RPRPDPSPEI
B46: unnamed (peptide)
chain: SPVSRIGL
B47: unnamed (peptide)
chain: AVEPGRPPL
B48: unnamed (peptide)
chain: TPRSPPLGL
B49: unnamed (peptide)
chain: KPSAEFITL
B50: unnamed (peptide)
chain: MPRPPETFL
B51: unnamed (peptide)
chain: MPDSLRSGEYL
B52: unnamed (peptide)
chain: TPRLPQRNL
B53: unnamed (peptide)
chain: IPAAPVPSL
B54: unnamed (peptide)
chain: LPAPKGPAL
B55: unnamed (peptide)
chain: IPDEAKALSLL
B56: unnamed (peptide)
chain: QPAVPLARAF

Target: HLA-B*07:02
Test: thermal melting temperature (Tm) of peptide-HLA complex; higher = more thermostable pHLA complex
Details: C1R-B*07:02
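Also: cell lysates heated 10 min at 37–73 °C, remaining pHLA pulled down with pan-class I antibody, peptides quantified by DIA-MS versus 37 °C, Tm where half the complex is lost.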

| Sequence | thermal melting temperature [°C] |
| --- | --- |
| B1 | 58.3 |
| B2 | 60.4 |
| B3 | 51.5 |
| B4 | 64.1 |
| B5 | 59.5 |
| B6 | 55.5 |
| B7 | 49.1 |
| B8 | 54.3 |
| B9 | 58.8 |
| B10 | 60 |
| B11 | 60.3 |
| B12 | 60.5 |
| B13 | 61.2 |
| B14 | 59 |
| B15 | 58.2 |
| B16 | 60.2 |
| B17 | 56 |
| B18 | 58.5 |
| B19 | 60.3 |

| Sequence | thermal melting temperature [°C] |
| --- | --- |
| B20 | 61.6 |
| B21 | 61.2 |
| B22 | 54.2 |
| B23 | 60.6 |
| B24 | 56.7 |
| B25 | 63 |
| B26 | 58.1 |
| B27 | 56.6 |
| B28 | 59 |
| B29 | 54.2 |
| B30 | 59.2 |
| B31 | 62.3 |
| B32 | 61.5 |
| B33 | 60.7 |
| B34 | 62.6 |
| B35 | 52.1 |
| B36 | 61.5 |
| B37 | 62.1 |
| B38 | 62.1 |

| Sequence | thermal melting temperature [°C] |
| --- | --- |
| B39 | 62.2 |
| B40 | 59.3 |
| B41 | 61.9 |
| B42 | 60.7 |
| B43 | 59.6 |
| B44 | 59.5 |
| B45 | 51.7 |
| B46 | 54 |
| B47 | 59.3 |
| B48 | 62.3 |
| B49 | 62.6 |
| B50 | 61.1 |
| B51 | 59.7 |
| B52 | 56.9 |
| B53 | 62 |
| B54 | 57.9 |
| B55 | 63.3 |
| B56 | 54.1 |
